In PubChem BioAssay AID1745853 (National Center for Advancing Translational Sciences (NCATS), 2022):
The other results are listed elsewhere or left out. Shown are side measurements of this screen, not its main read-out; they come without a call.

Tests used:
Assay in all cases: Primary Screen for Target Class Profiling of Small Molecule Inhibitors of Methyltransferases
[1] = target: Glycine N-methyltransferase (Homo sapiens) (UniProt Q14749); conditions: purified enzyme, MTase-Glo SAH luminescence; measured here: GNMT inhibition; at 40 µM; stronger effect = lower value
Outline: (§1)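 Each enzyme was assayed with SAM and its substrate. SAH formation detected by MTase-Glo luminescence; single-point 40 uM screen[…].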

[2] = target: Guanidinoacetate N-methyltransferase (Homo sapiens) (UniProt Q14353); conditions: purified enzyme, MTase-Glo SAH luminescence; measured here: GAMT inhibition; at 40 µM; stronger effect = lower value
Outline: as §1

[3] = target: Histamine N-methyltransferase (Homo sapiens) (UniProt P50135); conditions: purified enzyme, MTase-Glo SAH luminescence; measured here: HNMT inhibition; at 40 µM; stronger effect = lower value
Outline: as §1

[4] = target: Nicotinamide N-methyltransferase (Homo sapiens) (UniProt P40261); conditions: purified enzyme, MTase-Glo SAH luminescence; measured here: NNMT inhibition; at 40 µM; stronger effect = lower value
Outline: as §1

[5] = target: Phenylethanolamine N-methyltransferase (Homo sapiens) (UniProt P11086); conditions: purified enzyme, MTase-Glo SAH luminescence; measured here: PNMT inhibition; at 40 µM; stronger effect = lower value
Outline: as §1
% is set by controls: 0 for no effect and ±100 for the full control effect.

Structure (SMILES)	activity change, negative = inhibition [1] [%]	activity change, negative = inhibition [2] [%]	activity change, negative = inhibition [3] [%]	activity change, negative = inhibition [4] [%]	activity change, negative = inhibition [5] [%]
CCC(CC)C(=O)Nc1sc2c(c1C#N)CCC(C(C)(C)CC)C2 (stereo not drawn)	6.8	-7.36	9.59	-21.9	-4.42
CCS(=O)(=O)N1CCC2(CC1)CN(c1cccc(F)c1)C2c1ccccc1 (stereo not drawn)	-6.31	-10.6	-3.65	-10.3	-9.1
CCn1nc(C)cc1C(=O)N1CCOC[C@H](Oc2cccnc2)C1	0.789	5.09	-0.006	2.95	6.51
Cc1ccccc1Cn1nc2n(CCCOC(C)C)c(=O)c3ccccc3n2c1=O	-7.24	-0.53	5.36	-18.7	-5.4
O=C(CCn1ccc2cc(S(=O)(=O)N3CCCCC3)ccc21)N1CCC(Cc2ccccc2)CC1	-0.581	0	-0.252	-0.247	-0.22
O=C(Cn1ccn2nc(-c3ccc(F)cc3)c(CO)c2c1=O)Nc1ccc(F)cc1F	-3.11	-1.08	-3.29	-1.25	-6.27
Cc1nc(N2CCCC2)nc(N2CCC3(CC2)OCCCC3O)c1C (stereo not drawn)	-0.204	-0.005	-6.79	-1.63	-5.3
Cc1cc(Nc2nn(-c3ccccc3)c(=O)c3ccccc23)n[nH]1		-3.79		-16.2	-0.673
COCCCNC(=O)C1(C)Cn2nc(-c3ccccc3)cc2C(=O)N1c1cccc(C)c1C (stereo not drawn)	6.77	4.57	5.98	9.77	-0.234
CCCCN1C(=O)c2cc(C(=O)N3CCC(N4CCCCC4)CC3)nn2CC1(C)C(=O)NC1CCCC1 (stereo not drawn)	5.76	0	-0.571	5.95	4.69
CC(=O)C1=C(C)N(c2cccc(C(F)(F)F)c2)C(=O)N[C@H]1c1ccc(C#N)nc1	-0.071	4.08	0.135	-14.8	-7.04
O=[S+]([O-])(NCC1CN(Cc2ccc3[nH]ccc3c2)CC12CN(c1ccccc1)C2)c1ccccc1 (stereo not drawn)	-4.19	-5.44	-6.66	-11.7	-6.75
CC(CCc1ccccc1)N1C(=O)c2cc3sccc3n2CC1(C)C(=O)NC1CCCCC1 (stereo not drawn)	-5.55	5.18	-1.69	-0.807	-0.598
CC(=O)Nc1c2n(c3ccccc13)CC(C)(C(=O)NC1CCCC1)N(Cc1ccccc1C)C2=O (stereo not drawn)	4	3.56	0.792	9.49	4.13
Cc1ccccc1CSc1nnc2n(CCCOC(C)C)c(=O)c3ccccc3n12	-8.52	0	6.14	-8.84	2.67
Cc1cnc(-c2ccccc2)n1C1CCN(S(C)(=O)=O)CC1	-5.59	-7.01	-2.15	-13.8	-7.71
CCCC1c2ccc(C)n2CCN1C(=O)NCc1ccc(C)cc1 (stereo not drawn)	1.48	4.46	1.88	2.77	-1.28
COc1cccc(C(=O)Cn2nc3n(CC(C)C)c(=O)c4ccc(C(=O)NC5CCCC5)cc4n3c2=O)c1	2.77	0.034	2.14	0.215	-0.079
CC1CCN(S(=O)(=O)c2ccc3c(ccn3CC(=O)NC(C)c3ccccc3)c2)CC1 (stereo not drawn)	-0.498	3.71	-2.81	1.18	0.09
CC(C)Cn1nc(C(=O)O)c2c1CCN(C(=O)CC(C)c1ccccc1)C2 (stereo not drawn)	-8.09	-3	-1.7	-4.86	10.1
